Holding throughout (assay): Primary Screen for Target Class Profiling of Small Molecule Inhibitors of Methyltransferases
Test [1] addresses Glycine N-methyltransferase (Homo sapiens) (UniProt Q14749). The conditions noted are these: purified enzyme, MTase-Glo SAH luminescence; measured here: GNMT inhibition; at 40 µM; stronger effect = lower value. The source says:
(§1) PI: Matthew D. Hall Ph.D. and Quinlin M. Hanson Ph.D.
(§2) National Center for Advancing Translational Sciences (NCATS)
(§3) National Institute of Health (NIH), Rockville, MD
(§4) Target class profiling (TCP) is a chemical biology approach amenable to investigating understudied biological targets. TCP is achieved by developing a generalizable assay platform and applying it to screen a curated set of compound libraries against representative members of a target class. Small molecule methyltransferases (SMMTase) are a subclass of methyltransferase that act on metabolites to modulate signaling pathways, metabolize xenobiotics, or balance the available methyl pool. We screened four curated libraries totaling 27,574 unique compounds against the SMMTases nicotinamide N-methyltransferase (NNMT), phenylethanolamine N-methyltransferase (PNMT), histamine N-methyltransferase (HNMT), glycine N-methyltransferase (GNMT), catechol O-methyltransferase (COMT), and guanidinoacetate N-methyltransferase (GAMT). The data generated by this TCP can be leveraged for informed tool molecule development. For example, in the associated publication we identified a chemotype of HNMT-selective inhibitors. Additionally, we identified a putative SMMTase-selective inhibitor with potential as a tool molecule for studying broader methyltransferase biology.
(§5) High-through put screening assays were developed at the National Center for Advancing Translational Science (NCATS) for the enzymes NNMT, PNMT, HNMT, GNMT, COMT, and GAMT. Enzymatic activity was measured as a function of SAM cofactor conversion using the MTase Glo kit (Promega) for all enzymes. All assays were performed in 1536-well format with substrates and SAM concentrations at KM values. Enzyme concentration and assay timing were optimized for 10-20% SAM conversion. Initial screening of 27,574 compounds was done as single-point assays using the highest compound concentration (40 uM). […] These compounds were replated in 11-point dose response and assayed against NNMT, PNMT, HNMT, GNMT, COMT, GAMT, and a counter-assay. The IC50 and efficacy (maximal response) values were determined for each dose-response curve. These values are also accounted for in the area under the curve (AUC) values.
(§6) PROTOCOL TABLE (as described by Inglese J, Shamu CE and Guy RK. 2007)
(§7) SEQUENCE No. (e.g., 1, 2, 3, etc.); […] (e.g., Cells, Incubation, Reagent, etc.); VALUE; DESCRIPTION.
(§8) 1; Reagent; 2 uL; SMMTase Enzyme (2x) in reaction buffer, columns 1- 48.
(§9) 2; Reagent; 1 uL; SAM (4x) in reaction buffer, columns 1-48.
(§10) 3; Controls; 23 nL; DMSO in column 4; sinefungin in DMSO (0 uM - 40 uM) in 7-point 1:2 dilution series (n = 2) in column 2.
(§11) 4; Compounds; 23 nL; Columns 5-48.
(§12) 5; Reagent; 1 uL; Substrate (4x) in reaction buffer, columns 2-48.
(§13) 6; Time; 20-30 min; Incubation.
(§14) 7; Reagent; 1 uL; MTase-Glo reagent (5X), columns 1-48.
(§15) 8; Time; 30 min; Incubation.
(§16) 9; Reagent; 5 uL; MTase-Glo Detection reagent, columns 1-48.
(§17) 10; Time; 30 min; Incubation, luminescence evolution.
(§18) 11; Detection; Luminescence; ViewLux uHTS Microplate Imager (PerkinElmer).
(§19) NOTES (numbers refer to Sequence numbers above)
(§20) 1, 2, 5. White Medium Binding Greiner 1536-well plates (Cat #789175-F, Greiner Bio-One, Monroe, NC); Reaction buffer: 50 mM Tris, pH 8.0, 3 mM MgCl2, 1 mM EDTA, 50 mM NaCl, 1 mM DTT, and 0.1 mg/mL BSA. Evaporation was prevented by covering assay plates with metal lids containing holes to allow gas diffusion.
(§21) 1. Six SMMTase were profiled: HNMT, GNMT, PNMT, COMT, NNMT, GAMT
(§22) 5. The corresponding substrate was used for each enzyme: HNMT - 5.3 uM Histamine; GNMT - >500 uM Glycine; PNMT - 16.2 uM Norephinephrine; COMT - 13.7 uM Norephinephrine; NNMT - 3.8 uM Nicotinamide; GAMT - 2.5 uM Guanidinoacetate.6, 8, 10. Room temperature
(§23) 6. Final reaction conditions: 10 nM COMT, 5 uM SAM, 15 uM norepinephrine, 50 mM Tris, pH 8.0, 3 mM MgCl2, 1 mM EDTA, 50 mM NaCl, 1 mM DTT, and 0.1 mg/mL BSA; refer to tables 2 and S1 for specific timing.
8. […]

The target of test [2] is Guanidinoacetate N-methyltransferase (Homo sapiens) (UniProt Q14353). The settings on record: purified enzyme, MTase-Glo SAH luminescence; measured here: GAMT inhibition; at 40 µM; stronger effect = lower value.
Description: as §1, §2, §3, §4, §5, §6, §7, §8, §9, §10, §11, §12, §13, §14, §15, §16, §17, §18, §19, §20, §21, §22, §23
8. […]

The target in test [3] is Histamine N-methyltransferase (Homo sapiens) (UniProt P50135). The settings on record: purified enzyme, MTase-Glo SAH luminescence; measured here: HNMT inhibition; at 40 µM; stronger effect = lower value.
Description: as §1, §2, §3, §4, §5, §6, §7, §8, §9, §10, §11, §12, §13, §14, §15, §16, §17, §18, §19, §20, §21, §22, §23
8. […]

Test [4] deals with Nicotinamide N-methyltransferase (Homo sapiens) (UniProt P40261). The settings on record: purified enzyme, MTase-Glo SAH luminescence; measured here: NNMT inhibition; at 40 µM; stronger effect = lower value.
Description: as §1, §2, §3, §4, §5, §6, §7, §8, §9, §10, §11, §12, §13, §14, §15, §16, §17, §18, §19, §20, §21, §22, §23
8. […]

The target of test [5] is Phenylethanolamine N-methyltransferase (Homo sapiens) (UniProt P11086). The settings on record: purified enzyme, MTase-Glo SAH luminescence; measured here: PNMT inhibition; at 40 µM; stronger effect = lower value.
Description: as §1, §2, §3, §4, §5, §6, §7, §8, §9, §10, §11, §12, §13, §14, §15, §16, §17, §18, §19, §20, §21, §22, §23
8. […]

The structures appear in SMILES notation. The list shows a part of the results. Further columns of the screen follow, without active or inactive calls. Numbered stars: 1 amine (or outer) side, 2 acyl side, 3 side chain; on linkers, the order of the positions; unused ones are H or OH. Square brackets hold non-standard residues; d marks the D form. Peptide text beside a SMILES is read from it. X3 = CC(CC(O[*:1])C(=O)[*:2])C(=O)O; NMeV = CN[CH](C(=O)O)C(C)C; NMeA = CN[CH](C)C(=O)O; βAla = NCCC(=O)O
On the % scale 0 is the no-effect control and ±100 the full control effect.

For the compound `CSc1ccc(C2c3cccn3-c3ccccc3CN2C(=O)NCc2ccco2)cc1` (stereo not drawn), the activity change, negative = inhibition in test [1] is -2.16%; in test [2] it was 0%; in test [3], -2.78%; in test [4], -9.27%; in test [5], 1.28%.
Turning to `Cc1cc(C)cc(NC(=O)N2Cc3ccccc3-n3cccc3C2c2cccc(Cl)c2)c1` (stereo not drawn), the activity change, negative = inhibition turned out to be 14.7% in test [1]; 2.56% in test [2]; 4.58% in test [3]; 10.2% in test [4]; 8.85% in test [5].
On the same counts, the results for `CC(=O)c1cccc(NC(=O)OC[C@H]2C[C@@H]3CCN2C[C@@H]3c2cc(C3CCCC3)nc(C)n2)c1` are -1.33%, 1.09%, 0.914%, -6.79% and -10.5%.
In the same order, the values of `O=C(Nc1ccccc1F)N1Cc2ccccc2-n2cccc2C1c1ccccc1Cl` (stereo not drawn) are 1.95%, -3.73%, 7.17%, -4.84% and 1.67%.
Turning to `O=C(O)C(Cl)Cl`, the activity change, negative = inhibition was 6.21% in test [2], -1.56% in test [4] and 8.93% in test [5].
`CC(C)(C)c1cc(C=C(C#N)C#N)cc(C(C)(C)C)c1O`: the activity change, negative = inhibition in test [1] is -49.7%; in test [2] it was -15.4%; in test [3] it was -40.9%; in test [4], -18.6%; in test [5], -24.4%.
On the same counts, the results for `O=C(O)c1nn(Cc2ccc(Cl)cc2Cl)c2ccccc12` are -19.2%, 4.47%, -1.5%, -10.4% and 4.7%.
Turning to `CCc1ccc(NC(=O)N2Cc3ccccc3-n3cccc3C2c2ccc(C)cc2)cc1` (stereo not drawn), the activity change, negative = inhibition in test [1] was 9.9%; in test [2], 2.43%; in test [3], -1.12%; in test [4], -4.53%; in test [5], 0.958%.
In the same order, the values of `CCOP(=O)(OCC)Oc1ccc2c(C)cc(=O)oc2c1` are -0.343%, 8.76%, -0.887%, -16.2% and -8.27%.
In the same order, the values of `CCOc1ccc(C2c3cccn3-c3ccccc3CN2C(=O)Nc2cc(OC)cc(OC)c2)cc1` (stereo not drawn) are 2.81%, 1.2%, 9.78%, 7.51% and 7.51%.
In the same order, the values of `CCC(C)C1NC(=O)C2CCCN2C(=O)C(CC(C)C(=O)O)OC(=O)CCNC(=O)C(C)N(C)C(=O)C(C(C)C)N(C)C1=O` (stereo not drawn) (cyclo([X3]PI[NMeV][NMeA][βAla]); configuration not given here) are -1.45%, -7.07%, 3.16%, -15% and -0.544%.
For the compound `O=C(Nc1ccc2c(c1)OCCO2)N1Cc2ccccc2-n2cccc2C1c1cccs1` (stereo not drawn), the activity change, negative = inhibition in test [1] was 8.88%; in test [2], 0%; in test [3], 1.02%; in test [4], -4.32%; in test [5] it was 1.81%.
Consider `C=C(C)C(=O)O[C@H]1[C@@H]2[C@H](C)C(=O)O[C@@H]2C[C@@H](C)[C@@H]2C=CC(=O)[C@]21C`, for which the activity change, negative = inhibition is -3.96% in test [1]; 4.81% in test [2]; 9.68% in test [3]; -5.81% in test [4]; 4.89% in test [5].
On the same counts, the results for `CCOc1ccccc1NC(=O)N1Cc2ccccc2-n2cccc2C1c1ccc(C)cc1` (stereo not drawn) are 7.82%, 3.52%, 6.62%, 2.94% and -0.11%.
On to `CCCCCn1cc(C(=O)C2C(C)(C)C2(C)C)c2ccccc21`, for which the activity change, negative = inhibition is -2.37% in test [1]; -19.6% in test [2]; 6.38% in test [3]; -34.8% in test [4]; -12.6% in test [5].
`COc1ccc(NC(=O)N2Cc3ccccc3-n3cccc3C2c2cccc(Cl)c2)cc1` (stereo not drawn): the activity change, negative = inhibition is 8.7% in test [1]; 4.54% in test [2]; 0.326% in test [3]; -3.34% in test [4]; 1.95% in test [5].
As to `C[C@]12CC[C@H]3[C@@H](CCC4=C/C(=N/OCC(=O)O)CC[C@@]43C)[C@@H]1CC[C@@H]2O`, the activity change, negative = inhibition was -3.84% in test [1]; 2.83% in test [2]; 4.41% in test [3]; -15.5% in test [4]; -1.91% in test [5].
In the same order, the values of `COc1ccc(C2c3cccn3-c3ccccc3CN2C(=O)Nc2cccc(OC)c2)cc1` (stereo not drawn) are 3.93%, 0.174%, -2.3%, 1.67% and 6.32%.
With `CC[C@@H](CO)NC(=O)[C@@H]1C=C2c3cccc4[nH]cc(c34)C[C@H]2N(C)C1`, the activity change, negative = inhibition in test [1] was -44.1%; in test [2], -13.8%; in test [3], -13%; in test [4], -22.6%; in test [5], -62%.

Values taken from PubChem BioAssay AID1745853 (National Center for Advancing Translational Sciences (NCATS), 2022).
